# The whole screen tested about 310,000 compounds, of which about 2,200 (0.71%) showed an effect of 50% or more. Effects have a minus sign here. The list shows a part of the results.
# Molecular target: human ether-à-go-go-related gene (hERG) potassium channel (human, UniProt Q12809)
# Test: primary screen, population patch clamp on CHO cells stably expressing hERG
# Sequence of human ether-à-go-go-related gene (hERG) potassium channel (Q12809 whole entry, looked up): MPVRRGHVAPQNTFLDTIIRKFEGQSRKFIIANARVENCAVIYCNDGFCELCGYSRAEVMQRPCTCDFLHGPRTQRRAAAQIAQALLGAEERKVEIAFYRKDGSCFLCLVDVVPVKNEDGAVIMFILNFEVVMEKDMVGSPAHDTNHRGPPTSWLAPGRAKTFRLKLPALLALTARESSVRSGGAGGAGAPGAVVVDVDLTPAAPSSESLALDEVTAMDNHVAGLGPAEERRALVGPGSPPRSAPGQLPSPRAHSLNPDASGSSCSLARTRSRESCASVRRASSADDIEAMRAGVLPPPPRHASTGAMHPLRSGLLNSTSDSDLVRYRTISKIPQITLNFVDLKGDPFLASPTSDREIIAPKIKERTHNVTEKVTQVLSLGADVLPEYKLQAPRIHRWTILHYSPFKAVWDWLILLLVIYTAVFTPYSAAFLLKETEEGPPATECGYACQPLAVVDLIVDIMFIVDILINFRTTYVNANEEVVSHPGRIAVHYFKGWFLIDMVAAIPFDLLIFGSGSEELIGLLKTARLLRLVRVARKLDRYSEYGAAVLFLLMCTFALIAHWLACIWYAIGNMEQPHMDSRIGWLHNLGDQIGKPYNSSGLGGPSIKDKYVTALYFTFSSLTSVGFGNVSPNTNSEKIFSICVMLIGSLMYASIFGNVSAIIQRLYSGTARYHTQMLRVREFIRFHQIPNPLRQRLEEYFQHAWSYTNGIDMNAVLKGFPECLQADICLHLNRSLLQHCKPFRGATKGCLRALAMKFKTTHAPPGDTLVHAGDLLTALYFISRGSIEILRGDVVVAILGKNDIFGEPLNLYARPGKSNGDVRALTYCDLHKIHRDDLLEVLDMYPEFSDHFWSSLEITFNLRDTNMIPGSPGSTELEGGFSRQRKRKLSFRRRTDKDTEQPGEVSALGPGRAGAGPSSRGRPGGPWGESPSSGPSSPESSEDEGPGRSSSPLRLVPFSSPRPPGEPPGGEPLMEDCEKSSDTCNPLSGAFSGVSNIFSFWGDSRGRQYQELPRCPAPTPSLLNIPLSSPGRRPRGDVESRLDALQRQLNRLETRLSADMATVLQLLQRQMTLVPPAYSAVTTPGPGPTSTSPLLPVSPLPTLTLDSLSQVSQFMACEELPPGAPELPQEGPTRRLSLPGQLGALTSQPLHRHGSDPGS
row,Structure (SMILES),"hERG current change (%, negative = inhibition) at 1uM [%]"
1,CC(C)N(Cc1ccccc1)S(=O)(=O)c1ccc(F)cc1,12.7
2,COc1ccc(C)c2sc(=NC(=O)C(C)C)n(C)c12,2.38
3,O=C(Nc1ccccc1Br)C1CCN(C(=O)Cc2ccccc2)CC1,3.94
4,CCN1CCN(CCC(=O)Nc2cc(OC)ccc2OC)CC1.Cl,13.1
5,COc1ccc(Cc2nnc(SCC(=O)Nc3ccccc3C)n(N)c2=O)cc1,14.1
6,CCOc1cc(/C=C2/SC(=O)N(CC(=O)N3CCc4ccccc4C3)C2=O)ccc1OCC(=O)O,5.33
7,COc1ccc(S(=O)(=O)N2CCOC23CCN(S(=O)(=O)c2cc(F)ccc2F)CC3)cc1,10.4
8,Cc1nc2ncccn2c1-c1csc(NCc2ccco2)n1,-10.8
9,C1CCC(OCCN2CCN(CCOC3CCCCC3)CC2)CC1,4.4
10,Nc1cc(=O)[nH]n1C1CCCC1,21.4
11,COc1ccccc1N1CC(O)=C(c2nc3ccccc3s2)C1=N,5.15
12,Cc1cc(N2CCC(C(=O)NC3CC3)CC2)nc(-c2ccccc2)n1,-4.67
13,C=CCN1C(=O)N/C(=C/c2ccc(C)o2)C1=O,-2.88
14,CCCCN(C)C(=O)c1cccc(OC2CCN(CC(C)(C)C)CC2)c1,4.04
15,CC(=O)C(Sc1nccc(-c2cccs2)n1)C(C)=O,-1.67
16,CCCCN(CCCC)CCNC(=O)c1cn(C)c2ccc(S(=O)(=O)N3CCCC3)cc2c1=O,-2.94
17,O=C(C1CCN(S(=O)(=O)c2cccs2)CC1)N1CCc2ccccc2C1,9.76
18,COC(=O)C1C(c2ccc(N(C)C)cc2)C(C(=O)OC)S(=O)(=O)CS1(=O)=O (stereo not shown),5.71
19,COC(=O)c1ccc(OCC(=O)c2ccccc2)cc1,-0.942
20,CCC1C/C(=C/c2cccs2)C(=O)/C(=C/c2cccs2)C1 (stereo not shown),4.96
21,COc1cc(C(=S)N2CCOCC2)ccc1OS(=O)(=O)c1ccc(C)cc1,7.86
22,COc1ccc(Br)cc1CNC(=O)Nc1cccs1,-8.11
23,CCN(CC)C(=O)c1sc(NC(=O)Cc2ccc(OC)cc2)c(C#N)c1C,3.46
24,CC(=O)Nc1ccc(C(=O)CSc2nnc3scc(-c4ccccc4)n23)cc1,3.91
25,CCOC(=O)c1c(NC(=O)CSc2ncnc3ccccc23)sc(C)c1C,4.59
26,CC(=O)c1ccc(N2CCN(C(=O)Cc3ccccc3)CC2)c(F)c1,4.43
27,COc1ccccc1CN1CCCCCC1.O=C(O)C(=O)O,17.4
28,O=[N+]([O-])c1cc(C(F)(F)F)ccc1-n1nnc2ccccc21,9.07

row,Structure (SMILES),"hERG current change (%, negative = inhibition) at 1uM [%]"
1,O=C(c1ccc(CNS(=O)(=O)c2ccccc2)cc1)N1CCN(c2ccccn2)CC1,-2.53
2,CCN(CC)CCN1C(=O)C(=O)/C(=C(/O)c2ccncc2)C1c1ccccc1F (stereo not shown),8.92
3,O=C(Oc1cccnc1)c1cc2ccccc2oc1=O,-0.328
4,CC(=O)n1c2ccccc2c2nc3ccccc3nc21,8.67
5,Cc1nn(-c2ccccc2)c(C)c1NC(=O)COC(=O)c1cc(Br)ccc1O,14.9
6,CC(C)(C)NC(=O)CSc1nc(-c2ccc(F)cc2)cs1,22.3
7,COc1ccc(O)c(C(=O)c2cnn(-c3ccccc3)c2)c1,12.1
8,O=C(Nc1cc(S(=O)(=O)N2CCCCC2)ccc1N1CCCCC1)c1ccncc1,-7.8
9,CC1(C)CC(=O)C2=C(C1)OC(/N=C/N1CCOCC1)=C(C#N)C2c1ccccc1 (stereo not shown),2.73
10,CCOc1cc(S(=O)(=O)NCc2ccccc2)ccc1Br,13.9
11,CNC(=O)CCc1[nH]c2ccccc2c1Sc1ccccc1,13.7
12,C=CCn1cc(C(=O)OC)c(=O)c2cc(S(=O)(=O)N3CCCCCC3)ccc21,25.8
13,CCCCC(CC)COC(=O)C(C#N)=C(c1ccccc1)c1ccccc1 (stereo not shown),14.3
14,COC(=O)C1=C(C)N(CCc2c[nH]c3ccccc23)C(=O)/C1=C\N(C)C,22
15,O=C(CN1CCN(S(=O)(=O)c2ccc(Br)cc2)CC1)N/N=C/c1cccnc1,-1.72
16,COc1cccc(NC(=O)c2ccc3c(c2)C(=O)N(CC2CCCO2)C3=O)c1 (stereo not shown),14.2
17,O=C(NCCCN1CCCC1=O)C(=O)NCC1OCCCN1S(=O)(=O)c1cc(F)ccc1F (stereo not shown),22.4
18,C/C(=N\NC(=O)c1nnn(-c2nonc2N)c1CN1CCCCC1)c1ccccc1O.Cl,9.22
19,O=C(C(=O)N1CCN(c2cccc(Cl)c2)CC1)c1cn(CC(=O)N2CCOCC2)c2ccccc12,0.532
20,CCc1cc(=O)oc2cc(C)cc(OCC(=O)NC(Cc3ccc(Cl)cc3)C(=O)O)c12 (stereo not shown),-6.76
21,CCCOc1ccccc1C1NC(=O)NC(C)=C1C(=O)OCCOC (stereo not shown),16.1
22,CC(=O)Oc1ccccc1C(=O)Nc1ccccc1C(=O)N1CCCC1,18.7
23,CCn1cc([N+](=O)[O-])c(=O)c2cc(F)c(N3CCOCC3)cc21,18.3
24,Cc1ccc(S(=O)(=O)N(CC(=O)NN=C2CCN(C)CC2)c2ccc(C(C)C)cc2)cc1,2.72
25,CN(c1ccccc1)S(=O)(=O)c1ccc(Cl)c(C(=O)OCC(=O)NCc2ccco2)c1,10.7
26,CCC(C)Nc1nc(OC(C(F)(F)F)C(F)(F)F)nc(OC(C(F)(F)F)C(F)(F)F)n1 (stereo not shown),6.04
27,COc1ccc(-c2nc3c4ccccc4ccn3c2CN2CCOCC2)cc1OC.Cl,2.91
